The target in the assay is T1, BMP7 (human), P18075.
T1 chain: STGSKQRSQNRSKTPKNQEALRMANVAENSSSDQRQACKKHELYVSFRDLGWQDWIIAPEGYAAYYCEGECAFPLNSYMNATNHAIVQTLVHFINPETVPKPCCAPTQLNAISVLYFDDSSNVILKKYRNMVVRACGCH
The experiment in a line: Biacore SPR, BMPRII-Fc captured by anti-Fc antibody, ligand injected; transient interaction; same Biacore run; KD given without ka and kd because the interaction was transient. The following applies: remark: other sources report otherwise. Background: In SPR one partner is held on a chip, and binding of the other changes the refractive index at the surface.

What is called Kd is the constant that tells how readily two partners part at equilibrium. A low value points to a tighter complex.

B1: homodimeric BMPRII-Fc fusion protein (extracellular domain of human BMPRII fused to a human immunoglobulin G1 Fc domain) (Fc fusion)
chain: SQNQERLCAFKDPYQQDLGIGESRISHENGTILCSKGSTCYGLWEKSKGDINLVKQGCWSHIGDPQECHYEECVVTTTPPSIQNGTYRFCCCSTDLCNVNFTENFPPPDTTPLSPPHSFNRDETG[letters of human IgG1 Fc and a few adjoining residues not shown]
Consider B1, for which the Kd is 38 nM.

The record behind these values is patent US20210002342A1.
